Source: article PMC9228641 (Journal of medicinal chemistry, 2021)

Tested on: NS3/4A protease D168A variant
Settings: compared to the non-fluorinated parent 22

SMILES: COc1ccc2nc(C)c(O[C@@H]3C[C@H]4C(=O)N[C@]5(C(=O)NS(=O)(=O)C6(C)CC6)C[C@H]5C=CCCCCC[C@H](NC(=O)OC5(C(F)(F)F)CCC5)C(=O)N4C3)nc2c1 (stereo in doubt) [Compound 26, 1-(Trifluoromethyl)cyclobutyl ((2R,6S,13aS,14aR,16aS,Z)-2-((7-methoxy-3-methylquinoxalin-2-yl)oxy)-14a-(((1-methylcyclopropyl)sulfonyl)carbamoyl)-5,16-dioxo-1,2,3,5,6,7,8,9,10,11,13a,14,14a,15,16,16a-hexadecahydrocyclopropa[e]pyrrolo[1,2-a][1,4]diazacyclopentadecin-6-yl)carbamate]
- fold improvement in inhibitory potency against the D168A protease variant: 4 fold
